27 molecules from the antibiotic and cytotoxicity screens of Wong et al. (2023) can be followed below.

The structures appear in SMILES notation. The list shows a part of the results.

One experiment has as its system HSkMC. Briefly: cytotoxicity call (relative viability < 0.9). The following applies: 10 µM.
Another experiment has as its system HepG2. The experiment in a line: cytotoxicity call (relative viability < 0.9). Conditions: 10 µM.
The next experiment deals with S. aureus RN4220. The experiment in a line: growth inhibition call (relative growth <= 0.2). Conditions: 50 µM.

Regarding `Cc1noc(C)c1S(=O)(=O)N(C)C[C@@H]1Oc2ccc(NS(=O)(=O)c3ccc(Cl)cc3)cc2CC(=O)N([C@H](C)CO)C[C@@H]1C`, the cytotoxicity call with HSkMC and with HepG2 was “inactive” in each case. Further, the growth inhibition call in the experiment on S. aureus RN4220 was “inactive”.

As to `C[C@H](CO)N1C[C@H](C)[C@H](CN(C)Cc2ccccc2)OCCCC[C@H](C)Oc2ccc(NS(=O)(=O)c3cccs3)cc2C1=O`, the cytotoxicity call with HSkMC and in the experiment with HepG2 was “inactive” in each case. Besides, the growth inhibition call with S. aureus RN4220 is “inactive”.

Turning to `C=CC[C@H](CC(=O)N[C@@H](CO)Cc1ccccc1)C(=O)N[C@@H](COC(=O)[C@@H](CC=C)Cc1ccc(F)cc1)Cc1c[nH]c2ccccc12`, the cytotoxicity call with HSkMC and with HepG2 was “inactive” throughout. In the experiment with S. aureus RN4220, the growth inhibition call was “inactive”.

As to `Cc1ccc(S(=O)(=O)Nc2ccc3c(c2)C(=O)N([C@@H](C)CO)C[C@H](C)[C@@H](CN(C)S(=O)(=O)c2ccc(F)cc2)O3)cc1`, the cytotoxicity call in the experiment on HSkMC and with HepG2 was “inactive” each time. The growth inhibition call with S. aureus RN4220 is “inactive”.

For `C[C@@H]1CN([C@@H](C)CO)C(=O)Cc2cc(NC(=O)Nc3ccc(F)cc3)ccc2O[C@@H]1CN(C)S(=O)(=O)c1cn(C)cn1`, the cytotoxicity call in the experiment with HSkMC and with HepG2 was “inactive” in each case. For the same molecule, the growth inhibition call in the experiment on S. aureus RN4220 was “inactive”.

For `Cc1noc(C)c1NC(=O)Nc1ccc2c(c1)C(=O)N([C@H](C)CO)C[C@H](C)[C@@H](CN(C)Cc1ccc3c(c1)OCO3)OCCCC[C@H](C)O2`, the cytotoxicity call in the experiment on HSkMC and in the experiment on HepG2 was “inactive” each time. Besides, in the experiment with S. aureus RN4220, the growth inhibition call was “inactive”.

As to `CC(C)NC(=O)Nc1ccc2c(c1)C(=O)N([C@@H](C)CO)C[C@H](C)[C@H](CN(C)C(=O)Nc1ccccc1)OCCCC[C@H](C)O2`, the cytotoxicity call in the experiment with HSkMC and with HepG2 was “inactive” each time. Besides, in the experiment on S. aureus RN4220, the growth inhibition call was “inactive”.

On to `C[C@H]1CN([C@@H](C)CO)C(=O)c2cccc(NS(C)(=O)=O)c2O[C@@H]1CN(C)C(=O)Nc1ccccc1`, for which the cytotoxicity call in the experiment with HSkMC and with HepG2 was “inactive” in each case. The growth inhibition call with S. aureus RN4220 is “inactive”.

In the case of `NC(=O)c1ccnc(N2CCN(C(=O)C3CCOCC3)C[C@@H](O)C2)c1`, the cytotoxicity call in the experiment with HSkMC and with HepG2 was “inactive” each time. In the experiment with S. aureus RN4220, the growth inhibition call is “inactive”.

With `Cc1ccc(S(=O)(=O)Nc2ccc3c(c2)C(=O)N([C@@H](C)CO)C[C@H](C)[C@H](CN(C)C(=O)Nc2ccccc2)OCCCC[C@@H](C)O3)cc1`, the cytotoxicity call with HSkMC and with HepG2 was “inactive” each time. The growth inhibition call in the experiment on S. aureus RN4220 is “inactive”.

For the molecule `C[C@@H]1CN([C@@H](C)CO)C(=O)c2cccc(NS(=O)(=O)c3ccc(F)cc3)c2O[C@@H]1CN(C)Cc1ccc(-c2ccccc2)cc1`, the cytotoxicity call with HSkMC was “inactive”. The cytotoxicity call in the experiment on HepG2 was “active”. In the experiment on S. aureus RN4220, the growth inhibition call is “inactive”.

For `Cc1noc(C)c1NC(=O)Nc1ccc2c(c1)C(=O)N([C@@H](C)CO)C[C@H](C)[C@H](CN(C)Cc1ccncc1)OCCCC[C@@H](C)O2`, the cytotoxicity call with HSkMC and in the experiment on HepG2 was “inactive” throughout. For the same molecule, the growth inhibition call with S. aureus RN4220 was “inactive”.

As to `C[C@@H]1COC(=O)[C@@H](NC(=O)OCC2c3ccccc3-c3ccccc32)CC=CC[C@@H](CC(=O)NCCO)C(=O)N1`, the cytotoxicity call in the experiment on HSkMC and in the experiment on HepG2 was “inactive” each time. The growth inhibition call in the experiment with S. aureus RN4220 was “inactive”.

`CC(C)NC(=O)Nc1cccc2c1O[C@@H](CN(C)Cc1ccc(-c3ccccc3)cc1)[C@@H](C)CN([C@H](C)CO)C2=O`: the cytotoxicity call with HSkMC and in the experiment with HepG2 was “inactive” in each case. Further, the growth inhibition call with S. aureus RN4220 was “inactive”.

On to `CO[C@H]1CN(C)C(=O)c2ccc(NS(=O)(=O)CC(F)(F)F)cc2OC[C@@H](C)N(C(=O)NC(C)C)C[C@H]1C`, for which the cytotoxicity call in the experiment on HSkMC and in the experiment with HepG2 was “inactive” each time. The growth inhibition call in the experiment with S. aureus RN4220 was “inactive”.

Take `C[C@H]1CN([C@@H](C)CO)C(=O)Cc2cc(NS(C)(=O)=O)ccc2O[C@@H]1CN(C)C(=O)NC1CCCCC1`: the cytotoxicity call in the experiment with HSkMC and in the experiment on HepG2 was “inactive” throughout. In addition, the growth inhibition call with S. aureus RN4220 was “inactive”.

Regarding `CNC[C@@H]1Oc2ccc(NC(=O)Cn3cnnn3)cc2CC(=O)N([C@H](C)CO)C[C@H]1C`, the cytotoxicity call in the experiment on HSkMC and in the experiment with HepG2 was “inactive” throughout. In the experiment on S. aureus RN4220, the growth inhibition call was “inactive”.

As for `Nc1nonc1C(=O)OCC(=O)c1ccccc1`, the cytotoxicity call in the experiment on HSkMC and in the experiment with HepG2 was “inactive” in each case. In addition, the growth inhibition call in the experiment on S. aureus RN4220 was “inactive”.

In the case of `CO[C@@H]1CN(C)C(=O)c2cc(NS(=O)(=O)CC(F)(F)F)ccc2OC[C@H](C)N(Cc2ccccn2)C[C@@H]1C`, the cytotoxicity call in the experiment with HSkMC and in the experiment with HepG2 was “inactive” throughout. Moreover, the growth inhibition call in the experiment with S. aureus RN4220 is “inactive”.

Consider `C[C@@H]1CN([C@@H](C)CO)C(=O)c2cc(NS(=O)(=O)c3ccc(Cl)cc3)ccc2O[C@@H](C)CCCCO[C@H]1CN(C)C(=O)Nc1cccc2ccccc12`, for which the cytotoxicity call in the experiment on HSkMC and in the experiment with HepG2 was “inactive” in each case. In the experiment with S. aureus RN4220, the growth inhibition call was “inactive”.

Regarding `COc1cccc(S(=O)(=O)N2C[C@H](O)COC[C@@H]3O[C@H](CC(=O)N4CCOCC4)CC[C@H]32)c1`, the cytotoxicity call with HSkMC and in the experiment on HepG2 was “inactive” each time. In addition, in the experiment with S. aureus RN4220, the growth inhibition call is “inactive”.

`CCNC(=O)[C@@H]1CCCN1C(=O)[C@H](CCCN=C(N)N)NC(=O)[C@H](CC(C)C)NC(=O)[C@@H](COC(C)(C)C)NC(=O)[C@H](Cc1ccc(O)cc1)NC(=O)[C@H](CO)NC(=O)[C@H](Cc1c[nH]c2ccccc12)NC(=O)[C@H](Cc1c[nH]cn1)NC(=O)[C@@H]1CCC(=O)N1`: the cytotoxicity call in the experiment on HSkMC (human skeletal muscle cells) and with HepG2 was “inactive” throughout. Also, the growth inhibition call with S. aureus RN4220 was “inactive”.

As for `Cc1noc(C)c1S(=O)(=O)N(C)C[C@@H]1OCCCC[C@@H](C)Oc2ccc(NC(=O)Nc3ccc(C(F)(F)F)cc3)cc2C(=O)N([C@H](C)CO)C[C@@H]1C`, the cytotoxicity call with HSkMC and with HepG2 was “inactive” throughout. Besides, the growth inhibition call with S. aureus RN4220 was “inactive”.

Regarding `C[C@@H]1CCCCO[C@@H](CN(C)C(=O)Cc2ccccc2)[C@H](C)CN([C@@H](C)CO)C(=O)c2cc(NC(=O)CCCCCC(=O)Nc3ccccc3N)ccc2O1`, the cytotoxicity call in the experiment with HSkMC and in the experiment with HepG2 was “inactive” in each case. For the same molecule, in the experiment on S. aureus RN4220, the growth inhibition call is “inactive”.

With `COc1cccc(S(=O)(=O)Nc2ccc3c(c2)[C@H]2C[C@H](CC(=O)NCc4ccccc4F)O[C@H](CO)[C@H]2O3)c1`, the cytotoxicity call in the experiment with HSkMC and with HepG2 was “inactive” in each case. For the same molecule, the growth inhibition call in the experiment with S. aureus RN4220 was “inactive”.

With `C#CC1(OC(C)=O)CCC2C3CCC4=CC(=NO)CCC4C3CCC21CC` (stereo unspecified), the cytotoxicity call in the experiment with HSkMC was “inactive”. Besides, in the experiment on HepG2, the cytotoxicity call is “active”. The growth inhibition call in the experiment on S. aureus RN4220 is “inactive”.

Turning to `C[C@H](CO)N1C[C@H](C)[C@@H](CN(C)S(=O)(=O)c2cn(C)cn2)Oc2ccc(NC(=O)Cn3cnnn3)cc2CC1=O`, the cytotoxicity call with HSkMC and in the experiment with HepG2 was “inactive” each time. In addition, in the experiment on S. aureus RN4220, the growth inhibition call was “inactive”.
